Experimental data taken from the supplement of paper PMC11417369.
± gives the standard deviation of the averaged measurements. This is one part of the list.

test system: PfAP2-LT AP2 domain (GST-tagged); assay: gcPBM binding intensity (ln(normalized median fluorescence intensity)); higher = stronger DNA binding
In short: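 Using an Agilent 4 × 180k array, primer-extended double-stranded 36-bp intergenic genomic probes and negative controls were exposed for 1 h to GST-fused P. falciparum DNA-binding domains expressed in E. coli. Binding was carried out in 1× PBS with 1% milk, 0.2 mg/ml BSA, 0.5% salmon testes DNA and 0.03% Triton X-100, and protein was detected with Alexa488 anti-GST antibody and a 488 nm scan. Binding intensity is the highest Masliner-normalised natural-log median intensity across replicate spots of either probe orientation.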

Going from “TTAATTTCTATATACGCATGTATGAATAAGATATTG [TGCATGCA_site202]” to “TAATTATATGTATACACACACATACATTTACATAAC [CACACA_site3238]”, the “gcPBM binding intensity (ln)” value rises from 8.4 ± 0.41 to 9.4 ± 0.3.

“CAAACAAACAAATATACACACTTTTGTATAAAGTAA [CACACA_site5860]” and “TATAATTATATATATAGTACAGATTTGTTATGTTTA [XGTACX_site7724]” are within error of each other in “gcPBM binding intensity (ln)” value: 8.97 ± 0.49 for the first, 8.54 ± 0.35 for the second.

First: ATTTTTTTATAAGAAAATTTCTAACGTTAAAAAAAA [CACACA_negctrl_site1367]
Second: AGCTCTTGTCATTTTGCACACACACCCGTATAGGTT [CACACA_site3056]
The “gcPBM binding intensity (ln)” value of the first is lower: 7.94 ± 0.4 for the first, 9.96 ± 0.39 for the second.

First: GATTCTTCACCGTACTCACACATATATATATATATA [CACACA_site5665]
Second: AAAAGGGAAATAAAATAAAAAAAGAAACATATATAG [CACACA_negctrl_site455]
The “gcPBM binding intensity (ln)” value of the first is higher: 9.72 ± 0.028 for the first, 8.76 ± 0.54 for the second.

“ATCCATTATTTTTGTTGTACGGGTAACTTTAAAAAG [XGTACX_site2226]” and “TCTTTTTTTTTTAAACGTACATTGCATTATCACGTA [XGTACX_site6873]” are within error of each other in “gcPBM binding intensity (ln)” value: 8.54 ± 0.4 for the first, 8.7 ± 0.47 for the second.

Compared with “TATCTCATAGTATACACACACACACCCACCCATATA [CACACA_site1739]”, “AATATATATATATTCACACATAAAAAAGTAAAAAAA [CACACA_site5040]” is lower in “gcPBM binding intensity (ln)” value: 10.1 ± 0.11 for the first, 8.84 ± 0.49 for the second.

First: CACACGCACGAACACACACACACACGCATATAAATA [CACACA_site6302]
Second: TATTTATTATTAAGATGTACATAAAACACTGAATAA [XGTACX_site4246]
The “gcPBM binding intensity (ln)” value of the first is higher: 10.2 ± 0.3 for the first, 8.69 ± 0.47 for the second.

“GACCATATGAATAATGCACACGTTTTAAAATATTAA [CACACA_site5312]” and “TGAAAAAGGAAAAAAAAAAAAAAAAAAAAAACGAAA [GTGCAC_negctrl_site555]” are within error of each other in “gcPBM binding intensity (ln)” value: 8.88 ± 0.39 for the first, 8.46 ± 0.57 for the second.

“ATTAAGACACATTGCACACGTGCACCCATAGAAAAA [CACACA_site408]” and TATATATATATAATAGTGCATAAATAAATATATAAA are within error of each other in “gcPBM binding intensity (ln)” value: 9.12 ± 0.42 for the first, 8.85 ± 0.51 for the second.

First: TTTTAATTAAGACACACACACACATATAAATATGTA [CACACA_site7144]
Second: TATCATTTCATATCAAGTACAAACATTTTACATATA [XGTACX_site5307]
The “gcPBM binding intensity (ln)” value of the first is higher: 9.75 ± 0.31 for the first, 8.59 ± 0.35 for the second.

“ATAATAATATATATTGTACACACAAAATGGGAAAAA [CACACA_site8568]” and “ATTTGCTCACAAGAAGCACACAAAAAAAGAAAAAAA [CACACA_site9338]” are within error of each other in “gcPBM binding intensity (ln)” value: 9.12 ± 0.45 for the first, 8.71 ± 0.49 for the second.

Compared with “CAAAAAATTTGACGTAGTACTTAAAAAAAAAAAAAA [XGTACX_site4523]”, “TGTGTGTGTTCATGGGTGCTTTAATACTATTATAGG [GTGCAC_site9465]” is higher in “gcPBM binding intensity (ln)” value: 8.37 ± 0.46 for the first, 9.44 ± 0.17 for the second.

“TATTTGCTACATATATGTACTAAAAACTTTTTGCTT [XGTACX_site2362]” and “TATTATAAAAATATTCAGATACATTAACTTACTTTT [XGTACX_negctrl_site4]” are within error of each other in “gcPBM binding intensity (ln)” value: 8.87 ± 0.63 for the first, 8.31 ± 0.48 for the second.

Going from “TATCAATTTTTCTGGCTATCCAATTAGGGGAAGCCA [CACACA_negctrl_site1045]” to “TTATGTCATAAATGCACACATATACATTGTTTTGAT [CACACA_site646]”, the “gcPBM binding intensity (ln)” value rises from 8.24 ± 0.37 to 9.15 ± 0.31.

“TCTTTAACAAGTTAAACACACATACATAAATACATA [CACACA_site5406]” and “ATATAAATAAACAGGTGTACTATAATGTTCATAGTA [XGTACX_site1553]” are within error of each other in “gcPBM binding intensity (ln)” value: 8.82 ± 0.41 for the first, 8.85 ± 0.49 for the second.

“TATGATTTCACATAATGTACTTGCTAATTCGTGAAT [XGTACX_site1408]” and “GGGAAAATATTTGGGTGTACAAACAAATTAGCTAGC [XGTACX_site6795]” are within error of each other in “gcPBM binding intensity (ln)” value: 8.72 ± 0.39 for the first, 8.94 ± 0.47 for the second.

“TAATTATATATATATGCATGTTATAATTTTTATTTT [TGCATGCA_site78]” and “AAGAAAATATAAAATGCACACTATAAATTGTATTTA [CACACA_site4257]” are within error of each other in “gcPBM binding intensity (ln)” value: 8.71 ± 0.41 for the first, 8.78 ± 0.39 for the second.

“TTTACAGGAAAAAATACACACATTATTTTACCTTAT [CACACA_site2833]” and “CAATAAAAATTAAAATGTACAAATAAATATAAATAT [XGTACX_site7265]” are within error of each other in “gcPBM binding intensity (ln)” value: 8.83 ± 0.49 for the first, 8.85 ± 0.48 for the second.

“ACATGCCAAAATCTAATACAATAATAATAAAAAAAA [XGTACX_negctrl_site160]” and “CATTTACATGCCAACATGCACTGAACAATCTTTATA [GTGCAC_site9797]” are within error of each other in “gcPBM binding intensity (ln)” value: 8.69 ± 0.45 for the first, 8.73 ± 0.45 for the second.

“ACAAAACTTTTAAGAACACACAAAAATGTACTATCG [CACACA_site7245]” and “TTTTATGAATAATTATGTACATAACAAATGATATAT [XGTACX_site8318]” are within error of each other in “gcPBM binding intensity (ln)” value: 8.77 ± 0.47 for the first, 8.6 ± 0.46 for the second.

Compared with “CCCTATATAAATAGCTGTACATTTGAACATGTTCAG [XGTACX_site2187]”, “TACAAAAAAAAATAAAATACATATATATATATATAT [XGTACX_negctrl_site608]” is higher in “gcPBM binding intensity (ln)” value: 8.71 ± 0.37 for the first, 9.71 ± 0.17 for the second.

“GAAAATGAAATCCTTGCATGTAAAATTAAAATAGAA [TGCATGCA_site569]” and “TTTTTTTCTTAAAGATGTACTTTTTAAAAATAATCT [XGTACX_site1429]” are within error of each other in “gcPBM binding intensity (ln)” value: 8.71 ± 0.52 for the first, 8.2 ± 0.59 for the second.

“GTAGTAATAAATTAAAGTACAGAATATATTATACTA [XGTACX_site2809]” and “ATGAATTATAAATATTCACACAATATTTTTCATATG [CACACA_site4484]” are within error of each other in “gcPBM binding intensity (ln)” value: 8.79 ± 0.47 for the first, 8.76 ± 0.4 for the second.

“AGTGTGCTCAGCTTAGCACAAATTGGAATACCATGT [CACACA_negctrl_site367]” and “TATATACTCAGACATACACACAAATAAAAAAACACC [CACACA_site5820]” are within error of each other in “gcPBM binding intensity (ln)” value: 9.04 ± 0.38 for the first, 9.53 ± 0.27 for the second.

Compared with “TTATGTGATTTTAATTGTACATAAATATTTGTTAAC [XGTACX_site3489]”, “CACGCATACAGACACACACACACACGGATATAAATA [CACACA_site6445]” is higher in “gcPBM binding intensity (ln)” value: 8.56 ± 0.42 for the first, 10.2 ± 0.4 for the second.

“AAATATAGTATTAAAACACACATTTATATAAAAAGG [CACACA_site1482]” and “TGAACTCATAGGAAAACACACATATGTGTAATATAT [CACACA_site4267]” are within error of each other in “gcPBM binding intensity (ln)” value: 8.86 ± 0.47 for the first, 9.3 ± 0.41 for the second.

“AACAAAAAAACAAACACACACACACGCATATTTATA [CACACA_site7680]” and “AAAAACAACACAGATAAATTAACACACACACACATA [XGTACX_negctrl_site588]” are within error of each other in “gcPBM binding intensity (ln)” value: 10.2 ± 0.29 for the first, 10.1 ± 0.12 for the second.

“TTTTTTTATACAATTTTATATATTAAATATTATAAT [CACACA_negctrl_site226]” and “AAAGAAAACGGACTTTGTACTTAAATATAATATAAA [XGTACX_site8585]” are within error of each other in “gcPBM binding intensity (ln)” value: 8.41 ± 0.47 for the first, 8.63 ± 0.44 for the second.
